Experimental data published in the supplement of paper PMC11417369.
± gives the standard deviation of the averaged measurements. This is one part of the list.

The sequences below were run on PfAP2-LT AP2 domain (GST-tagged) (assay: gcPBM binding intensity (ln(normalized median fluorescence intensity)); higher = stronger DNA binding).
How it was run: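 GST-tagged P. falciparum DNA-binding domains produced in E. coli were incubated for 1 h on an Agilent 4 × 180k array of primer-extended double-stranded 36-bp intergenic genomic probes with negative controls. Binding intensity is the highest Masliner-normalised natural-log median intensity across replicate spots of either probe orientation, with bound protein detected by Alexa488 anti-GST antibody at 488 nm.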

Row | Sequence | gcPBM binding intensity (ln)
1 | TTTTTTTTTCTTTGGTGTACAATGTAATAGAAAATA [XGTACX_site227] | 8.29 ± 0.35
2 | TTTTTTTTTGAATATTGTACATATATATTACTTTTA [XGTACX_site5520] | 8.74 ± 0.45
3 | AAAAAATTATATAAATGTACATTTTGGCTAGACATG [XGTACX_site5977] | 8.73 ± 0.35
4 | CATATATATAATTATTCACACAATAGTTAAAAGTAT [CACACA_site5302] | 8.8 ± 0.42
5 | ATATGTATGTATGTATGTACTTATTTATTTATTAAT [XGTACX_site8018] | 8.83 ± 0.42
6 | TACATAAATTAAAACACACACACACTAATAAAAAAA [CACACA_site8712] | 9.85 ± 0.18
7 | TAGCTCGTTCGGAGCACACACATATATATATATATA [CACACA_site1948] | 9.81 ± 0.47
8 | GTTTTATTTTGTTTCTATTTGACACATGTGATTATT [CACACA_negctrl_site1246] | 9.1 ± 0.52
9 | ATTCAATATATATACACACACACTTTTAATAATTAA [CACACA_site3770] | 9.38 ± 0.17
10 | TCTTGTAAATATATGTGTATATTATATTTTATTATA [TGCATGCA_negctrl_site117] | 8.64 ± 0.45
11 | TGTTAAAATAAAATCTATTACATTTTTATGGTTATA [XGTACX_negctrl_site525] | 8.3 ± 0.47
12 | CTTAATATTCTTTAAAGTACACAAAATAAGAATATA [XGTACX_site5489] | 8.29 ± 0.47
13 | TGCAAGGAAAAACACACACACACATAAATGTATATA [CACACA_site751] | 9.79 ± 0.25
14 | ATTTCATATACAAATTGTACATACAATTTTATGTTT [XGTACX_site3240] | 8.93 ± 0.35
15 | TTAAAAATAATATTATGTACTAAGAATAAATATATA [XGTACX_site3100] | 8.45 ± 0.4
16 | CTAGTAAAAAATGCAAGTACATACATTATAAGTATA [XGTACX_site3908] | 8.88 ± 0.43
17 | ATATTGGAGCACAACACACACAAGTATAAATATGGA [CACACA_site6834] | 9.48 ± 0.45
18 | AAAAAACACGCACATACACACAAAAATGTTATAAAT [CACACA_site6188] | 9.53 ± 0.4
19 | TTATATTTTTTAATTACACACAATTTTTATAAATAT [CACACA_site4148] | 8.71 ± 0.47
20 | ATCTCATAAAACCGCACACACATAAAATTTGCATTA [CACACA_site3891] | 9.45 ± 0.4
21 | TTAATTTCTATATACGCATGTATGAATAAGATATTG [TGCATGCA_site202] | 8.4 ± 0.41
22 | TAATTATATGTATACACACACATACATTTACATAAC [CACACA_site3238] | 9.4 ± 0.3

Row | Sequence | gcPBM binding intensity (ln)
23 | CAAACAAACAAATATACACACTTTTGTATAAAGTAA [CACACA_site5860] | 8.97 ± 0.49
24 | TATAATTATATATATAGTACAGATTTGTTATGTTTA [XGTACX_site7724] | 8.54 ± 0.35
25 | ATTTTTTTATAAGAAAATTTCTAACGTTAAAAAAAA [CACACA_negctrl_site1367] | 7.94 ± 0.4
26 | AGCTCTTGTCATTTTGCACACACACCCGTATAGGTT [CACACA_site3056] | 9.96 ± 0.39
27 | GATTCTTCACCGTACTCACACATATATATATATATA [CACACA_site5665] | 9.72 ± 0.028
28 | AAAAGGGAAATAAAATAAAAAAAGAAACATATATAG [CACACA_negctrl_site455] | 8.76 ± 0.54
29 | ATCCATTATTTTTGTTGTACGGGTAACTTTAAAAAG [XGTACX_site2226] | 8.54 ± 0.4
30 | TCTTTTTTTTTTAAACGTACATTGCATTATCACGTA [XGTACX_site6873] | 8.7 ± 0.47
31 | TATCTCATAGTATACACACACACACCCACCCATATA [CACACA_site1739] | 10.1 ± 0.11
32 | AATATATATATATTCACACATAAAAAAGTAAAAAAA [CACACA_site5040] | 8.84 ± 0.49
33 | CACACGCACGAACACACACACACACGCATATAAATA [CACACA_site6302] | 10.2 ± 0.3
34 | TATTTATTATTAAGATGTACATAAAACACTGAATAA [XGTACX_site4246] | 8.69 ± 0.47
35 | GACCATATGAATAATGCACACGTTTTAAAATATTAA [CACACA_site5312] | 8.88 ± 0.39
36 | TGAAAAAGGAAAAAAAAAAAAAAAAAAAAAACGAAA [GTGCAC_negctrl_site555] | 8.46 ± 0.57
37 | ATTAAGACACATTGCACACGTGCACCCATAGAAAAA [CACACA_site408] | 9.12 ± 0.42
38 | TATATATATATAATAGTGCATAAATAAATATATAAA | 8.85 ± 0.51
39 | TTTTAATTAAGACACACACACACATATAAATATGTA [CACACA_site7144] | 9.75 ± 0.31
40 | TATCATTTCATATCAAGTACAAACATTTTACATATA [XGTACX_site5307] | 8.59 ± 0.35
41 | ATAATAATATATATTGTACACACAAAATGGGAAAAA [CACACA_site8568] | 9.12 ± 0.45
42 | ATTTGCTCACAAGAAGCACACAAAAAAAGAAAAAAA [CACACA_site9338] | 8.71 ± 0.49
43 | CAAAAAATTTGACGTAGTACTTAAAAAAAAAAAAAA [XGTACX_site4523] | 8.37 ± 0.46
44 | TGTGTGTGTTCATGGGTGCTTTAATACTATTATAGG [GTGCAC_site9465] | 9.44 ± 0.17
